{
  "source": "PubChem BioAssay AID686979",
  "about": "(National Center for Advancing Translational Sciences (NCATS), 2013)",
  "note": "The whole screen tested about 420,000 compounds, of which about 50,000 (12%) were called active. The shares of active, inactive and inconclusive entries below differ from those in the screen. Calls come from the whole dose curve; as a rule, active = well fitted inhibition curve with a large enough effect; inconclusive = small, poorly fitted or top-dose-only effect; inactive = flat fitted curve, though single readings scatter. Potencies of inconclusive entries are left out as doubtful fits. % is set by controls: 0 for no effect and ±100 for the full control effect; potency is the fitted concentration of half-maximal effect; tags give direction and shape of the fitted curve.",
  "data": [
    {"experiment": "qHTS for Inhibitors of human tyrosyl-DNA phosphodiesterase 1 (TDP1): qHTS in cells in presence of CPT; note: nearly all actives have a fitted effect of over 55% in size", "conditions": "chicken DT40 Tdp1-/-;hTDP1 cells + 20 nM CPT, ATP luminescence, 48 h; activity change, negative = growth inhibition: at 46.2 µM (top of the series) unless noted", "procedure,_shortened": "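Chicken DT40 Tdp1-/- cells complemented with human TDP1, 400 cells/well, exposed to compounds plus 20 nM camptothecin for at least 48 h at 37 C; viability read as ATP content by CellTiter-Glo luminescence.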", "values": [
      {"smiles": "CCN(CC)c1ccc(C(=O)NC(=S)N2CCN(Cc3ccc4c(c3)OCO4)CC2)cc1", "Potency": "inconclusive [inhibitor, single point]"},
      {"smiles": "COc1ccccc1NC(=O)c1c(NCc2ccc(C)o2)sc2c1CCCCC2", "Potency": "active: 5.8 µM"},
      {"smiles": "CCOc1ccc(S(=O)(=O)N2c3ccccc3CC2C)cc1", "note": "(stereo not given)", "Potency": "active: 0.651 µM"},
      {"smiles": "O=C(N/C(=C\\c1ccc2c(c1)OCO2)C(=O)N1CCOCC1)c1ccccc1Br", "activity change, negative = growth inhibition": "inactive: -2.64%"},
      {"smiles": "CCOc1ccc(C(=O)Nc2ccc(-c3cc4ccccc4oc3=O)c(C)c2)cc1[N+](=O)[O-]", "Potency": "active: 13 µM"},
      {"smiles": "COc1ccc(C(CC(=O)NCc2ccccc2)Sc2n[nH]c(-c3ccc(Cl)cc3)n2)cc1", "note": "(stereo not given)", "Potency": "inconclusive [inhibitor, single point]"},
      {"smiles": "COc1ccc(Cl)cc1Nc1nc(NCCO)nc(N2CCCC2)n1", "Potency": "inconclusive [inhibitor, partial curve]"},
      {"smiles": "CC(=O)Nc1sc2c(c1C(N)=O)CCC2", "activity change, negative = growth inhibition": "inactive: -1.95%"},
      {"smiles": "Fc1ccccc1/C=N/N1CCN(Cc2ccccc2Cl)CC1", "activity change, negative = growth inhibition": "inconclusive: -33.2% [inhibitor]"},
      {"smiles": "CCCc1nn2c(=O)cc(COC(=O)c3ccccc3NC(=O)COc3ccccc3)nc2s1", "Potency": "inconclusive [inhibitor, full curve, poor fit]"},
      {"smiles": "CN(C)c1ccc(/C=C/C(=O)c2c(O)c3ccccc3oc2=O)cc1", "activity change, negative = growth inhibition": "inactive: -19.7%"},
      {"smiles": "CN1CCC(=NNC(=O)c2cn(-c3ccccc3)nc2-c2ccccc2)CC1", "activity change, negative = growth inhibition": "inactive: -18.2%"},
      {"smiles": "COc1cc(OC)cc(C(=O)NCC(=O)OCC(=O)c2cc(C)n(Cc3ccco3)c2C)c1", "Potency": "inconclusive [inhibitor, single point]"},
      {"smiles": "CCOC(=O)C1CCN(Cc2nc3ccccc3c(=O)n2-c2ccc(OCC)cc2)CC1", "Potency": "inconclusive [inhibitor, single point]"},
      {"smiles": "CCOCCn1c(-c2ccccc2)nc2ccccc21", "Potency": "inconclusive [inhibitor, single point]"},
      {"smiles": "O=C(CC1C(=O)NCCN1C(=O)c1ccc([N+](=O)[O-])cc1)Nc1cccc(Cl)c1", "note": "(stereo not given)", "Potency": "inconclusive [inhibitor, single point]"},
      {"smiles": "COc1ccccc1NS(=O)(=O)c1ccc(C(=O)NCC(c2ccc(F)cc2)N2CCOCC2)cc1", "note": "(stereo not given)", "Potency": "inconclusive [inhibitor, single point]"},
      {"smiles": "COCCNC(=O)c1ccc(C(=O)NCCOC)s1", "activity change, negative = growth inhibition": "inactive: -14.5%"},
      {"smiles": "CCn1c(NCc2c[nH]c3ccccc23)nc2ccccc21", "Potency": "inconclusive [inhibitor, single point]"},
      {"smiles": "CC(=O)c1ccc(NC(=O)CSc2nc(N)c3cc4c(nc3n2)CCCC4)cc1", "Potency": "inconclusive [inhibitor, single point]"},
      {"smiles": "CC(C)CN(C(=O)CCC(=O)OCc1ccc(Cl)cc1Cl)c1c(N)n(CC(C)C)c(=O)[nH]c1=O", "Potency": "inconclusive [inhibitor, single point]"},
      {"smiles": "O=C(NC1CCCCCC1)c1ccco1", "activity change, negative = growth inhibition": "inactive: 7.15%"},
      {"smiles": "Cc1ccc(S(=O)(=O)c2ccc(NN)cc2)cc1", "Potency": "inconclusive [inhibitor, single point]"},
      {"smiles": "CN(CC(=O)Nc1cc(C(F)(F)F)ccc1-n1cncn1)Cc1ccccc1N1CCOCC1", "Potency": "inconclusive [inhibitor, single point]"},
      {"smiles": "CC(=O)Nc1nonc1-c1nnc(SCc2ccccc2F)n1C", "Potency": "inconclusive [inhibitor, single point]"},
      {"smiles": "CCc1ccc(OCC(=O)Nc2nnc(C3CCCC3)s2)cc1", "activity change, negative = growth inhibition": "inactive: 11.3%"},
      {"smiles": "Cc1cc(Cl)ccc1OCCCC(=O)Nc1cccnc1", "Potency": "active: 14.6 µM"},
      {"smiles": "CC(Sc1nncs1)C(=O)Nc1ccc(Cl)cn1", "note": "(stereo not given)", "activity change, negative = growth inhibition": "inactive: -10.5%"},
      {"smiles": "CC(=O)c1ccc(N2CCN(c3ncnc4c3c(-c3ccccc3)cn4-c3ccc(Cl)cc3)CC2)cc1", "Potency": "inconclusive [inhibitor, partial curve]"},
      {"smiles": "O=C(CCl)Nc1ncc(S(=O)(=O)c2ccc([N+](=O)[O-])cc2)s1", "Potency": "active: 29.1 µM"},
      {"smiles": "COc1ccc([C@@H]2[C@@H]3C(=O)N(C(C)(C)C)C(=O)[C@@H]3[C@]3(C)C(=O)N(c4cccc(Br)c4)C(=O)N23)cc1", "Potency": "inconclusive [inhibitor, single point]"},
      {"smiles": "Cc1cccc(C)c1NC(=O)CN1CCN(C(=O)CCC(=O)N2CCC(c3ccccc3)=N2)CC1", "activity change, negative = growth inhibition": "inactive: 11.9%"},
      {"smiles": "COc1cccc(N=NC2C(=O)N(C(N)=S)N=C2C)c1", "note": "(stereo not given)", "activity change, negative = growth inhibition": "inactive: 9.1%"},
      {"smiles": "Cc1cccc(C)c1OCC(=O)Nc1ccc2c(c1)C(=O)NC2=O", "activity change, negative = growth inhibition": "inactive: -15%"},
      {"smiles": "CC(C)(C)C(=O)Nc1ccc(C(=O)NCc2cccnc2)cc1", "activity change, negative = growth inhibition": "inactive: 5.69%"},
      {"smiles": "CN1C2CCC1/C(=C\\c1ccccc1)C(=O)/C2=C\\c1ccccc1", "Potency": "active: 11.6 µM"},
      {"smiles": "CCCCSc1nnc2n(-c3ccc(OC)cc3)c(=O)c3c4c(sc3n12)COC(C(C)C)C4", "note": "(stereo not given)", "Potency": "inconclusive [inhibitor, single point]"},
      {"smiles": "C(=N\\Nc1nc2ccccc2s1)/c1cccs1", "Potency": "active: 16.4 µM"},
      {"smiles": "O=c1cc(-c2ccccc2)cc(-c2ccccc2)n1O", "Potency": "active: 20.6 µM"},
      {"smiles": "Cc1cccc2c1N(Cc1ccccc1OCCC(C)C)C(=O)C2=O", "Potency": "active: 14.6 µM"},
      {"smiles": "COC(=O)C(C)N1C(=O)S/C(=C\\c2ccc(-c3ccc(C(=O)O)cc3C)o2)C1=O", "note": "(stereo not given)", "Potency": "inconclusive [inhibitor, single point]"},
      {"smiles": "CC=C1OC(n2cnc3c(N)ncnc32)C(O)C1O", "note": "(stereo not given)", "Potency": "inconclusive [inhibitor, partial curve]"},
      {"smiles": "COc1ccc(N(CC(=O)N2CCN(c3ccc(Cl)cc3)CC2)S(=O)(=O)c2c(C)n[nH]c2C)cc1", "Potency": "inconclusive [inhibitor, single point]"},
      {"smiles": "COc1cccc(CNC(=O)Cn2nc(-c3ccc(Cl)cc3)ccc2=O)c1", "Potency": "inconclusive [inhibitor, partial curve]"},
      {"smiles": "COc1ccc(-c2cc(C)nc(SCC(=O)c3cccc([N+](=O)[O-])c3)n2)cc1", "activity change, negative = growth inhibition": "inactive: -22.4%"},
      {"smiles": "COc1cccc(-n2c(-c3ccc4[nH]c(C)c(C)c4c3)n[nH]c2=S)c1", "Potency": "inconclusive [inhibitor, single point]"},
      {"smiles": "CCOC(=O)C1(CCOc2ccccc2)CCN(Cc2cc(OC)cc(OC)c2)CC1", "Potency": "active: 25.9 µM"},
      {"smiles": "COc1ccc(CCN(C)C(=O)Cc2ccc(-c3ccccc3)cc2)cc1OC", "Potency": "active: 18.4 µM"},
      {"smiles": "COc1ccc2c(c1)c(=O)c(S(=O)(=O)c1ccccc1)cn2CC(=O)Nc1ccc(C)c(Cl)c1", "Potency": "inconclusive [inhibitor, single point]"},
      {"smiles": "COc1ccc(NC(=O)CN(C)C(=O)c2cccc(NS(=O)(=O)c3ccc(Br)cc3)c2)cc1", "Potency": "inconclusive [inhibitor, single point]"},
      {"smiles": "Cc1c(C(=O)N2CC3CCC2C3)sc2ncnc(NCCc3ccccn3)c12", "note": "(stereo not given)", "Potency": "inconclusive [inhibitor, single point]"},
      {"smiles": "COc1ccc(NC(=O)c2cn(-c3ccccc3)nc2-c2cc3ccccc3o2)cc1", "Potency": "active: 16.4 µM"},
      {"smiles": "c1ccc2c(-c3cc(NCc4ccncc4)n4nccc4n3)cccc2c1", "activity change, negative = growth inhibition": "inactive: -29.3%"},
      {"smiles": "COc1cccc(-n2c(SCC(N)=O)nc3c([nH]c4ccccc43)c2=O)c1", "Potency": "active: 18.4 µM"},
      {"smiles": "N[C@H]1CN(c2c(F)cc3c(=O)c(C(=O)O)cn(C4C[C@H]4F)c3c2Cl)CC12CC2", "note": "(stereo not given in full)", "activity change, negative = growth inhibition": "inactive: -5.28%"},
      {"smiles": "CN(Cc1ccccc1)C(=O)c1ccc(NC(=O)Cc2ccc(NC(=O)C3CCCN(C(=O)C4CC4)C3)cc2)cc1", "note": "(stereo not given)", "Potency": "inconclusive [inhibitor, single point]"},
      {"smiles": "Cc1ccc(NC(=O)[C@H](Cc2ccccc2)NC(=O)[C@@H]2Cc3ccccc3CN2)c(C)c1", "Potency": "inconclusive [inhibitor, partial curve]"},
      {"smiles": "COc1ccc(-n2c(=O)c3c(c4cc(OC)ccc4n3C)n(Cc3cccc(C)c3)c2=O)cc1", "Potency": "inconclusive [inhibitor, single point]"},
      {"smiles": "CCOC(=O)c1c(C)[nH]c(C)c1S(=O)(=O)N1CCCC(C(=O)NCc2ccc(N(C)C)cc2)C1", "note": "(stereo not given)", "Potency": "inconclusive [inhibitor, single point]"},
      {"smiles": "CC1(C(=O)NCc2ccccc2Br)CCN1C(=O)Cc1ccc(-c2ccccc2)cc1", "note": "(stereo not given)", "Potency": "inconclusive [inhibitor, single point]"},
      {"smiles": "Cc1cc(N2CCOCC2)n2cc(-c3ccc(F)cc3)nc2n1", "Potency": "inconclusive [inhibitor, full curve, poor fit]"},
      {"smiles": "CCCCN(C=O)c1c(CC)nc2ccc(C(=O)NCCc3ccccn3)cn12", "activity change, negative = growth inhibition": "inactive: -24.4%"},
      {"smiles": "Cc1ccc(-c2ccc(=O)n(Cc3c(F)cccc3Cl)n2)cc1", "Potency": "inconclusive [inhibitor, single point]"},
      {"smiles": "COC(=O)C1=CN(c2c(C)cc(C)cc2C)C(N)=C(C#N)C1c1cccc(F)c1", "note": "(stereo not given)", "Potency": "inconclusive [inhibitor, single point]"},
      {"smiles": "COc1ccc(-n2cc(C(=O)NCCc3cc(OC)ccc3OC)c3ccccc3c2=O)cc1", "Potency": "active: 16.4 µM"},
      {"smiles": "C#CCN1C=CC(=O)[C@@H](OC(=O)Nc2ccc(Cl)cc2)[C@H]1c1ccccc1Br", "Potency": "active: 20.6 µM"},
      {"smiles": "CC(C)(C)C(=O)CSc1ccc(S(=O)(=O)N2CCN(Cc3ccccc3)CC2)cn1", "Potency": "inconclusive [inhibitor, single point]"},
      {"smiles": "CCC(C(=O)Nc1cccc(-c2nc3cccnc3s2)c1C)c1ccccc1", "note": "(stereo not given)", "Potency": "active: 20.6 µM"},
      {"smiles": "O=C(O)CCC(=O)Nc1ccccc1C(=O)NCc1ccccc1", "activity change, negative = growth inhibition": "inactive: -0.18%"},
      {"smiles": "C[C@H]1CN(c2ccccc2)C(=O)[C@@H]1CC(=O)Nc1ccc(Br)cc1", "Potency": "inconclusive [inhibitor, single point]"}
    ]}
  ]
}
